About 14,000 (4.5%) of roughly 310,000 compounds showed an effect of 50% or more. Effects have a minus sign here. This is one part of the list.
These molecules were tested against human ether-à-go-go-related gene (hERG) potassium channel (human, UniProt Q12809) (assay: primary screen, population patch clamp on CHO cells stably expressing hERG).
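Note: peak tail current of the secondary pulse compared with the same well before compound.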

human ether-à-go-go-related gene (hERG) potassium channel, sequence (Q12809 whole entry, looked up): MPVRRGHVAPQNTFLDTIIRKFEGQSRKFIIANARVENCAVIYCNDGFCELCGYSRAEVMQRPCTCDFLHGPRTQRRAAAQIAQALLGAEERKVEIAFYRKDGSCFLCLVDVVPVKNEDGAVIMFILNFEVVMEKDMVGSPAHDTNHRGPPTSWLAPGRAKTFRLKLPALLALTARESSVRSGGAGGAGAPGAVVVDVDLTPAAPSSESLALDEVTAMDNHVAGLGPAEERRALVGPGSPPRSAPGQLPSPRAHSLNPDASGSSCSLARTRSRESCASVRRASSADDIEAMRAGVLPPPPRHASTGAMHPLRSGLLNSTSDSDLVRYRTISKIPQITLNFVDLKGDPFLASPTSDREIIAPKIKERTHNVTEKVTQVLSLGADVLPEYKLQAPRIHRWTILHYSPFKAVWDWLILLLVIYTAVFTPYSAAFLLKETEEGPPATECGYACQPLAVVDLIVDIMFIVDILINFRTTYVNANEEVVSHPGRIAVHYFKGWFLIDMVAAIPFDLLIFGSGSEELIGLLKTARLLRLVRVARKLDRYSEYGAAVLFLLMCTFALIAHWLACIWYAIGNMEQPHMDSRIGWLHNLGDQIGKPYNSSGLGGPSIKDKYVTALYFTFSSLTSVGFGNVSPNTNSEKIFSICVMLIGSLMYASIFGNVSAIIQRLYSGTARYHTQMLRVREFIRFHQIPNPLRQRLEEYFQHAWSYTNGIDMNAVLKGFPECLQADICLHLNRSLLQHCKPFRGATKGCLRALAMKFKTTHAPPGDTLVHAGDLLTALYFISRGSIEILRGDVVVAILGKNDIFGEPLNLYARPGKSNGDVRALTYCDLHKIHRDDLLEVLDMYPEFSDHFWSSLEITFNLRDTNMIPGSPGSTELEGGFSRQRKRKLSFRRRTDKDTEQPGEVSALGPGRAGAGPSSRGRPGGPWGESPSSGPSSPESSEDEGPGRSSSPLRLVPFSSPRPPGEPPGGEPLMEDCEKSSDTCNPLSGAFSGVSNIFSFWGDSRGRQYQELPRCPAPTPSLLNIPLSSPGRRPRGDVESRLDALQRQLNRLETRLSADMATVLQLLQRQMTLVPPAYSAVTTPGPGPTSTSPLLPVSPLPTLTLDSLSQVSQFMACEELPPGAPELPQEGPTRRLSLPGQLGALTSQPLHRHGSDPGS

Which “hERG current change (%, negative = inhibition) at 10uM” value does the source give for `COc1ccc(-c2nc(N)nc(C(F)(F)F)c2-c2csc(C)n2)c(O)c1` here?
Its value is 3.66%.

How did the “hERG current change (%, negative = inhibition) at 10uM” value turn out when `COc1cc(/C=N/N(C)C2=NS(=O)(=O)c3ccccc32)cc(OC)c1OC` was run?
Its value is 7.82%.

Which “hERG current change (%, negative = inhibition) at 10uM” value does the source give for `Cc1ccccc1OCC(=O)OCC(=O)Nc1cc(S(C)(=O)=O)ccc1Cl` here?
Its value is 5.58%.

With `CCN(CC)S(=O)(=O)c1ccc(N2CCOCC2)c(NC(=O)c2c3c(nc4ccccc24)CCC3)c1` as the molecule, how does the “hERG current change (%, negative = inhibition) at 10uM” value read?
The value was -0.0112%.

Which “hERG current change (%, negative = inhibition) at 10uM” value does the source give for `COC(=O)c1ccc(CC(=O)c2nc3ccccc3s2)cc1` here?
Its value is 5.7%.

`COc1cccc(C(=O)C[n+]2cccc3cc(OC)ccc32)c1.[Br-]` was tested. Which “hERG current change (%, negative = inhibition) at 10uM” value did it give?
The value was 4.65%.

Which “hERG current change (%, negative = inhibition) at 10uM” value does the source give for `Cn1cc(NC(=O)Nc2ccc(C(F)(F)F)cc2)c(C(F)(F)F)n1` here?
Its value is 3.28%.

With `Cc1ccc(NC(=O)COC(=O)c2ccc(=O)n(Cc3ccccc3)n2)cc1F` as the molecule, how does the “hERG current change (%, negative = inhibition) at 10uM” value read?
Its value is 10.7%.

Which “hERG current change (%, negative = inhibition) at 10uM” value does the source give for `COc1ccc(C(=O)NC2CCCN(Cc3ccc(Cl)cc3)C2)c(OC)c1` (centres unmarked) here?
The value was -79.5%.

`C=CCn1c(SCC(=O)N(C)C2CCS(=O)(=O)C2)nc2ccccc2c1=O` (centres unmarked) was tested. Which “hERG current change (%, negative = inhibition) at 10uM” value did it give?
Its value is -50%.

How did the “hERG current change (%, negative = inhibition) at 10uM” value turn out when `O=C(c1ccccc1)N(C1=NCCCCS1)c1ccccc1` was run?
The value was -4.83%.

With `CCOc1cc(CNc2ccccc2SC)ccc1O` as the molecule, how does the “hERG current change (%, negative = inhibition) at 10uM” value read?
The value was 6.15%.

How did the “hERG current change (%, negative = inhibition) at 10uM” value turn out when `Cc1cc(C(=O)NCCc2ccccc2)ccc1[N+](=O)[O-]` was run?
Its value is -4.7%.

How did the “hERG current change (%, negative = inhibition) at 10uM” value turn out when `CC(=O)Nc1nonc1NC(=O)CSc1nc2ccccc2o1` was run?
Its value is -6.62%.

Which “hERG current change (%, negative = inhibition) at 10uM” value does the source give for `CCC(=O)Nc1ccc(NC(=O)CSc2nnnn2C(C)C)cc1` here?
The value was -0.728%.

`Fc1ccc(CNC(=S)Nc2ccccc2F)cc1` was tested. Which “hERG current change (%, negative = inhibition) at 10uM” value did it give?
The value was 0.377%.

With `COc1ccc(CCNC(=O)CSc2nnc(Cc3csc(N)n3)n2C)cc1OC` as the molecule, how does the “hERG current change (%, negative = inhibition) at 10uM” value read?
Its value is -4.69%.

`O=C(NCCC1=CCCCC1)C1CCN(S(=O)(=O)c2ccccc2C(F)(F)F)CC1` was tested. Which “hERG current change (%, negative = inhibition) at 10uM” value did it give?
The value was 16.4%.

Which “hERG current change (%, negative = inhibition) at 10uM” value does the source give for `CCOc1ccc(Nc2nc3c(c(=O)[nH]2)CCC3)cc1` here?
The value was -1.32%.

For `Cc1ccc(S(=O)(=O)NCc2nnc(SCC(=O)Nc3cccc(C)c3C)n2C)cc1`, which “hERG current change (%, negative = inhibition) at 10uM” value is on record?
The value was -19.7%.

With `CCC(=O)N1CCc2cc(S(=O)(=O)CCC(=O)NCc3ccco3)ccc21` as the molecule, how does the “hERG current change (%, negative = inhibition) at 10uM” value read?
Its value is 9.48%.

For `CSCCC(NC(=O)c1cc([N+](=O)[O-])ccc1Cl)C(=O)O` (centres unmarked), which “hERG current change (%, negative = inhibition) at 10uM” value is on record?
Its value is 19.6%.

How did the “hERG current change (%, negative = inhibition) at 10uM” value turn out when `CSc1ncccc1C(=O)Nc1ccc(C)cn1` was run?
Its value is 0.536%.

For `O=[N+]([O-])c1ccc(NCCCO)c(C(F)(F)F)c1`, which “hERG current change (%, negative = inhibition) at 10uM” value is on record?
The value was -5.87%.

How did the “hERG current change (%, negative = inhibition) at 10uM” value turn out when `CN(CC(=O)N1CC=C(c2ccccc2)CC1)S(=O)(=O)c1cnc[nH]1` was run?
Its value is 1.5%.

For `Cc1cc(NC(=O)CS(=O)(=O)Cc2ccccc2)no1`, which “hERG current change (%, negative = inhibition) at 10uM” value is on record?
Its value is 11.8%.

Which “hERG current change (%, negative = inhibition) at 10uM” value does the source give for `O=CN1CCN(C(C(=O)NC2CCCCC2)c2cc3c(cc2[N+](=O)[O-])OCO3)CC1` (centres unmarked) here?
The value was 13%.

With `CCCCCOC(=O)CSc1nnc(-c2cc(OC)c(OC)c(OC)c2)o1` as the molecule, how does the “hERG current change (%, negative = inhibition) at 10uM” value read?
The value was -11.2%.

Which “hERG current change (%, negative = inhibition) at 10uM” value does the source give for `Cc1nc(-c2ccccc2)sc1C(N)=O` here?
The value was 9.01%.

For `O=[N+]([O-])c1cc(/C=N/O)ccc1Oc1cccc(Cl)c1`, which “hERG current change (%, negative = inhibition) at 10uM” value is on record?
The value was -53.7%.

With `CCN(CC(=O)Nc1c(F)cccc1F)C(=O)/C=C/c1ccc(C)o1` as the molecule, how does the “hERG current change (%, negative = inhibition) at 10uM” value read?
The value was 17.2%.

With `Cc1onc(-c2ccccc2)c1C(=O)NC(C)c1ccc2c(c1)OCO2` (centres unmarked) as the molecule, how does the “hERG current change (%, negative = inhibition) at 10uM” value read?
The value was 27.7%.

`CCOc1ccc(C(=S)N2CCCC2)cc1OCC` was tested. Which “hERG current change (%, negative = inhibition) at 10uM” value did it give?
The value was 9.86%.

Which “hERG current change (%, negative = inhibition) at 10uM” value does the source give for `O=C1CCCC/C1=C\Nc1ccc(C(=O)O)c(O)c1` here?
Its value is 6.02%.

`COc1ccc(S(=O)(=O)N(C)CC(=O)Nc2ccccc2C(F)(F)F)cc1OC` was tested. Which “hERG current change (%, negative = inhibition) at 10uM” value did it give?
The value was -7.67%.

For `CC1CCCC(C)N1C(=O)CSc1ccc(-c2ccc3c(c2)OCCO3)nn1` (centres unmarked), which “hERG current change (%, negative = inhibition) at 10uM” value is on record?
Its value is -26.5%.

How did the “hERG current change (%, negative = inhibition) at 10uM” value turn out when `COc1ccc(C)cc1NC(=O)Cn1cnc2sc(C)c(S(=O)(=O)N3CCOCC3)c2c1=O` was run?
The value was 7.43%.

Which “hERG current change (%, negative = inhibition) at 10uM” value does the source give for `Cc1ccc2c(c1)c1c3n2CCN(CCC(=O)O)C3CCC1` (centres unmarked) here?
The value was -3.49%.

Which “hERG current change (%, negative = inhibition) at 10uM” value does the source give for `Cc1cc(-c2nnc(CCC(=O)N(C)Cc3cccc4ccccc34)o2)no1` here?
Its value is -23%.

How did the “hERG current change (%, negative = inhibition) at 10uM” value turn out when `O=C(Oc1ccccc1)n1c(=S)oc2ccccc21` was run?
Its value is 12.2%.

With `CC1(C(=O)O)Sc2[nH]c(=O)sc2C2c3ccccc3OC(=O)C21` (centres unmarked) as the molecule, how does the “hERG current change (%, negative = inhibition) at 10uM” value read?
The value was 15.4%.

For `CCOC(=O)CCc1c(C)nc(SCCN2CCCC2)c(C#N)c1C`, which “hERG current change (%, negative = inhibition) at 10uM” value is on record?
Its value is -63.9%.

Which “hERG current change (%, negative = inhibition) at 10uM” value does the source give for `O=C(c1ccc([N+](=O)[O-])o1)N1CCN(c2nc3ccc(F)cc3s2)CC1` here?
Its value is -23.7%.

With `O=C(NCCc1ccc(F)cc1)Nc1ccccc1` as the molecule, how does the “hERG current change (%, negative = inhibition) at 10uM” value read?
The value was -22.1%.

`CC1C(=O)N2CCCc3cc(NC(=O)C(=O)NCCN4CCOCC4)cc1c32` (centres unmarked) was tested. Which “hERG current change (%, negative = inhibition) at 10uM” value did it give?
Its value is 15.2%.

How did the “hERG current change (%, negative = inhibition) at 10uM” value turn out when `O=S(=O)(NC1=NCCCCC1)c1ccc(F)cc1` was run?
Its value is 11.1%.

`Cc1ccc(S(=O)(=O)N2CCCN(S(=O)(=O)c3ccc4ccccc4c3)CC2)cc1` was tested. Which “hERG current change (%, negative = inhibition) at 10uM” value did it give?
Its value is -3.38%.

For `COc1cc(OC)c(NC(=O)c2sc3ncn(CC(=O)N4CCOCC4)c(=O)c3c2C)cc1Cl`, which “hERG current change (%, negative = inhibition) at 10uM” value is on record?
The value was 11.8%.

Which “hERG current change (%, negative = inhibition) at 10uM” value does the source give for `Cc1oc(-c2ccccc2Cl)nc1CS(=O)(=O)CC(=O)NC(C)c1ccccc1` (centres unmarked) here?
The value was -2.46%.

`O=C(NC1CCCCC1)c1cc(-c2ccco2)on1` was tested. Which “hERG current change (%, negative = inhibition) at 10uM” value did it give?
Its value is 13.4%.

With `COc1ccc(OCC(=O)Nc2nnc(C)s2)cc1` as the molecule, how does the “hERG current change (%, negative = inhibition) at 10uM” value read?
The value was 9.71%.

How did the “hERG current change (%, negative = inhibition) at 10uM” value turn out when `COC(=O)c1[nH]c(C)c(/C(O)=C2\C(=O)C(=O)N(CCN3CCOCC3)C2c2ccc(C)o2)c1C` (centres unmarked) was run?
Its value is -6.49%.

For `Cc1cccc(N(CC(=O)NCC2CCCO2)C(=O)CCC(=O)Nc2nccs2)c1` (centres unmarked), which “hERG current change (%, negative = inhibition) at 10uM” value is on record?
Its value is 12.9%.

`COc1ccc(NS(=O)(=O)c2ccc(C)c(C(=O)NCc3cccnc3)c2)cc1` was tested. Which “hERG current change (%, negative = inhibition) at 10uM” value did it give?
Its value is 8.65%.

Which “hERG current change (%, negative = inhibition) at 10uM” value does the source give for `O=C(c1ccc(OC2CCN(Cc3ccccc3C(F)(F)F)CC2)cc1)N1CCCCC1` here?
The value was 2.01%.

For `CCC(C)/C(C)=N/NC(=O)c1ccc(CSc2nc3ccccc3s2)cc1` (centres unmarked), which “hERG current change (%, negative = inhibition) at 10uM” value is on record?
Its value is -1.29%.
